# Experimental data published in the supplement of paper PMC12217912.
# This is one part of the list. Sequences were assembled here from the parent chain. Values near 0.05 are background.
# B1: TEV protease; numbered along this chain (parent)
# chain: MGESLFKGPRDYNPISSSICHLTNESDGHTTSLYGIGFGPFIITNKHLFRRNNGTLVVQSLHGVFKVKDTTTLQQHLVDGRDMIIIRMPKDFPPFPQKLKFREPQREERICLVTTNFQTKSMSSMVSDTSCTFPSGDGIFWKHWIQTKDGQCGSPLVSTRDGFIVGIHSASNFTNTNNYFTSVPKNFMELLTNQEAQQWVSGWRLNADSVLWGGHKVFMVKPEEPFQPVKEATQL
# Variants of: B1
# Test: raw area under fraction-flipped curve 0-4 h after induction (AUC4h, not background-subtracted), DNA-recorder readout of cleavage of the substrate (dimensionless); higher = more cleavage of the substrate by the protease variant
# Conditions: temperature: 34 °C; time window: 0-4 h after rhamnose induction
# Description: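 In vivo DNA recorder in E. coli TOP10(DE3) ΔrhaA at 34 °C. Each TEVp single-site mutant (parent TEVp 0) is paired with a single-site variant of the 7-mer TEVs (canonical ENLYFQ|S). The substrate sits between flexible linkers in a Bxb1-sfGFP-TEVs-SsrA fusion, so cleavage stabilises Bxb1 and speeds flipping of a recombination array, read by NGS. The value is the raw area under the fraction-flipped curve over 0-4 h after rhamnose induction (AUC4h), with ≥20 reads per time point. It is not background-subtracted; inactive controls average about 0.047.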
# 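Note: Bxb1 expression induced with 0.2% (w/v) L-rhamnose at OD600 near 0.5, cultures sampled hourly, flipped fraction per protease–substrate barcode pair counted by paired-end Illumina sequencing.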
Variant,area with substrate EALYFQS,area with substrate EELYFQS,area with substrate EQLYFQS,area with substrate ESLYFQS,area with substrate EVLYFQS,area with substrate EGLYFQS,area with substrate EKLYFQS,area with substrate EWLYFQS,area with substrate EDLYFQS,area with substrate EHLYFQS
MGESLFKGPRDYNPISSSICHLTNESDGHTTSLYGIGFGPFIITNKHLFRRNNGTLVVQSLHGVFKVKDTTTLQQHLVDGRDMIIIRMPKDFPPFPQKLKFREPQREERICLVTTNFQTKSMSSMVSDTSCTFPSGDGIFWKHWIQTKDGQCGSPLVSVRDGFIVGIHSASNFTNTNNYFTSVPKNFMELLTNQEAQQWVSGWRLNADSVLWGGHKVFMVKPEEPFQPVKEATQL [T159V],0.109,0.115,0.13,0.104,0.0995,,,,,
MGESLFKGPRDYNPISSSICHLTNESDGHTTSLYGIGFGPFIITNKHLFRRNNGTLVVQSLHGVFKVKDTTTLQQHLVDGRDMIIIRMPKDFPPFPQKLKFREPQREERICLVTTNFQTKSMSSMVSDTSCTFPSGDGIFWKHWIQTKDGQCGSPLVSKRDGFIVGIHSASNFTNTNNYFTSVPKNFMELLTNQEAQQWVSGWRLNADSVLWGGHKVFMVKPEEPFQPVKEATQL [T159K],0.123,,,0.12,,0.0793,0.104,0.0991,,
MGESLFKGPRDYNPISSSICHLTNESDGHTTSLYGIGFGPFIITNKHLFRRNNGTLVVQSLHGVFKVKDTTTLQQHLVDGRDMIIIRMPKDFPPFPQKLKFREPQREERICLVTTNFQTKSMSSMVSDTSCTFPSGDGIFWKHWIQTKDGQCGSPLVSTRDVFIVGIHSASNFTNTNNYFTSVPKNFMELLTNQEAQQWVSGWRLNADSVLWGGHKVFMVKPEEPFQPVKEATQL [G162V],0.0511,,,0.0746,,,,,,
MGESLFKGPRDYNPISSSICHLTNESDGHTTSLYGIGFGPFIITNKHLFRRNNGTLVVQSLHGVFKVKDTTTLQQHLVDGRDMIIIRMPKDFPPFPQKLKFREPQREERICLVTTNFQTKSMSSMVSDTSCTFPSGDGIFWKHWIQTKDGQCGSPLVSTRDGFIVGIHSASNFTATNNYFTSVPKNFMELLTNQEAQQWVSGWRLNADSVLWGGHKVFMVKPEEPFQPVKEATQL [N175A],0.0721,,0.0937,0.0846,0.0659,,0.0822,0.105,0.106,0.0774
MGESLFKGPRDYNPISSSICHLTNESDGHTTSLYGIGFGPFIITNKHLFRRNNGTLVVQSLHGVFKVKDTTTLQQHLVDGRDMIIIRMPKDFPPFPQKLKFREPQREERICLVTTNFQTKSMSSMVSDTSCTFPSGDPIFWKHWIQTKDGQCGSPLVSTRDGFIVGIHSASNFTNTNNYFTSVPKNFMELLTNQEAQQWVSGWRLNADSVLWGGHKVFMVKPEEPFQPVKEATQL [G138P],0.101,,0.0605,0.0838,,,,,,
MGESLFKGPRDYNPISSSICHLTNESDGHTTSLYGIGFGPFIITNKHLFRRNNGTLVVQSLHGVFKVKDTTTLQQHLVDGRDMIIIRMPKDFPPFPQKLKFREPQREERICLVTTNFQTKSMSSMVSDTSCTFPSGDGIFWKHWIQVKDGQCGSPLVSTRDGFIVGIHSASNFTNTNNYFTSVPKNFMELLTNQEAQQWVSGWRLNADSVLWGGHKVFMVKPEEPFQPVKEATQL [T147V],0.124,0.111,0.108,,0.0872,,0.0838,,,
MGESLFKGPRDYNPISSSICHLTNESDGHTTSLYGIGFGPFIITNKHLFRRNNGTLVVQSLHGVFKVKDTTTLQQHLVDGRDMIIIRMPKDFPPFPQKLKFREPQREERICLVTTNFQTKSMSSMVSDTSCTFPSGDGIFWKHWIQTKDGQCGSPLVSTRDGFIVGIHSASNFENTNNYFTSVPKNFMELLTNQEAQQWVSGWRLNADSVLWGGHKVFMVKPEEPFQPVKEATQL [T174E],0.108,,,,,,,,,0.0828
MGESLFKGPRDYNPISSSICHLTNESDGHTTSLYGIGFGPFIITNKHLFRRNNGTLVVQSLHGVFKVKDTTTLQQHLVDGRDMIIIRMPKDFPPFPQKLKFREPQREERICLVTTNFQTKSMSSMVSDTSCTFPSGDGIFWKHWIQTKDGQCGSPLVSTRDGFIVGIHSASNFCNTNNYFTSVPKNFMELLTNQEAQQWVSGWRLNADSVLWGGHKVFMVKPEEPFQPVKEATQL [T174C],0.0825,,0.0796,0.0971,,,,,,0.0846
MGESLFKGPRDYNPISSSICHLTNESDGHTTSLYGIGFGPFIITNKHLFRRNNGTLVVQSLHGVFKVKDTTTLQQHLVDGRDMIIIRMPKDFPPFPQKLKFREPQREERICLVTTNFQTKSMSSMVSDTSCTFPSGDGIFNKHWIQTKDGQCGSPLVSTRDGFIVGIHSASNFTNTNNYFTSVPKNFMELLTNQEAQQWVSGWRLNADSVLWGGHKVFMVKPEEPFQPVKEATQL [W141N],0.0598,0.0093,,0.0382,,,0.0607,,,0.0582
MGESLFKGPRDYNPISSSICHLTNESDGHTTSLYGIGFGPFIITNKHLFRRNNGTLVVQSLHGVFKVKDTTTLQQHLVDGRDMIIIRMPKDFPPFPQKLKFREPQREERICLVTTNFQTKSMSSMVSDTSCTFPSGDGIFWKHWIQTKDGQCFSPLVSTRDGFIVGIHSASNFTNTNNYFTSVPKNFMELLTNQEAQQWVSGWRLNADSVLWGGHKVFMVKPEEPFQPVKEATQL [G153F],0.0316,0.0523,,0.0491,0.052,0.052,0.0494,,,
MGESLFKGPRDYNPISSSICHLTNESDGHTTSLYGIGFGPFIITNKHLFRRNNGTLVVQSLHGVFKVKDTTTLQQHLVDGRDMIIIRMPKDFPPFPQKLKFREPQREERICLVTTNFQTKSMSSMVSDTSCTFPSGDGIFWKHWIQTKDGQCGSPLVSTRDGFIVGIHSASNTTNTNNYFTSVPKNFMELLTNQEAQQWVSGWRLNADSVLWGGHKVFMVKPEEPFQPVKEATQL [F173T],0.088,0.116,0.0976,0.0822,,0.0645,0.0829,,0.0993,

# Same assay, conditions: temperature: 34 °C; time window: 0-4 h after rhamnose induction
Variant,area with substrate EILYFQS,area with substrate ELLYFQS,area with substrate EPLYFQS,area with substrate ERLYFQS,area with substrate EYLYFQS,area with substrate EFLYFQS,area with substrate ETLYFQS,area with substrate EMLYFQS
MGESLFKGPRDYNPISSSICHLTNESDGHTTSLYGIGFGPFIITNKHLFRRNNGTLVVQSLHGVFKVKDTTTLQQHLVDGRDMIIIRMPKDFPPFPQKLKFREPQREERICLVTTNFQTKSMSSMVSDTSCTFPSGDGIFWKHWIQTKDGQCGSPLVSTRDGFIVGIHSASNFTATNNYFTSVPKNFMELLTNQEAQQWVSGWRLNADSVLWGGHKVFMVKPEEPFQPVKEATQL [N175A],0.0641,0.0746,0.0676,0.0698,0.0898,,,
MGESLFKGPRDYNPISSSICHLTNESDGHTTSLYGIGFGPFIITNKHLFRRNNGTLVVQSLHGVFKVKDTTTLQQHLVDGRDMIIIRMPKDFPPFPQKLKFREPQREERICLVTTNFQTKSMSSMVSDTSCTFPSGDPIFWKHWIQTKDGQCGSPLVSTRDGFIVGIHSASNFTNTNNYFTSVPKNFMELLTNQEAQQWVSGWRLNADSVLWGGHKVFMVKPEEPFQPVKEATQL [G138P],,,,0.0878,,,,
MGESLFKGPRDYNPISSSICHLTNESDGHTTSLYGIGFGPFIITNKHLFRRNNGTLVVQSLHGVFKVKDTTTLQQHLVDGRDMIIIRMPKDFPPFPQKLKFREPQREERICLVTTNFQTKSMSSMVSDTSCTFPSGDGIFWKHWIQVKDGQCGSPLVSTRDGFIVGIHSASNFTNTNNYFTSVPKNFMELLTNQEAQQWVSGWRLNADSVLWGGHKVFMVKPEEPFQPVKEATQL [T147V],,,0.0935,0.0872,,0.116,0.11,
MGESLFKGPRDYNPISSSICHLTNESDGHTTSLYGIGFGPFIITNKHLFRRNNGTLVVQSLHGVFKVKDTTTLQQHLVDGRDMIIIRMPKDFPPFPQKLKFREPQREERICLVTTNFQTKSMSSMVSDTSCTFPSGDGIFWKHWIQTKDGQCGSPLVSTRDGFIVGIHSASNFENTNNYFTSVPKNFMELLTNQEAQQWVSGWRLNADSVLWGGHKVFMVKPEEPFQPVKEATQL [T174E],,,0.0837,0.0882,,,,
MGESLFKGPRDYNPISSSICHLTNESDGHTTSLYGIGFGPFIITNKHLFRRNNGTLVVQSLHGVFKVKDTTTLQQHLVDGRDMIIIRMPKDFPPFPQKLKFREPQREERICLVTTNFQTKSMSSMVSDTSCTFPSGDGIFWKHWIQTKDGQCGSPLVSTRDGFIVGIHSASNFCNTNNYFTSVPKNFMELLTNQEAQQWVSGWRLNADSVLWGGHKVFMVKPEEPFQPVKEATQL [T174C],0.0756,,0.0887,,,,0.0848,0.0831
MGESLFKGPRDYNPISSSICHLTNESDGHTTSLYGIGFGPFIITNKHLFRRNNGTLVVQSLHGVFKVKDTTTLQQHLVDGRDMIIIRMPKDFPPFPQKLKFREPQREERICLVTTNFQTKSMSSMVSDTSCTFPSGDGIFNKHWIQTKDGQCGSPLVSTRDGFIVGIHSASNFTNTNNYFTSVPKNFMELLTNQEAQQWVSGWRLNADSVLWGGHKVFMVKPEEPFQPVKEATQL [W141N],,,0.0573,,,,,
MGESLFKGPRDYNPISSSICHLTNESDGHTTSLYGIGFGPFIITNKHLFRRNNGTLVVQSLHGVFKVKDTTTLQQHLVDGRDMIIIRMPKDFPPFPQKLKFREPQREERICLVTTNFQTKSMSSMVSDTSCTFPSGDGIFWKHWIQTKDGQCFSPLVSTRDGFIVGIHSASNFTNTNNYFTSVPKNFMELLTNQEAQQWVSGWRLNADSVLWGGHKVFMVKPEEPFQPVKEATQL [G153F],0.0465,,0.0633,,,,,
MGESLFKGPRDYNPISSSICHLTNESDGHTTSLYGIGFGPFIITNKHLFRRNNGTLVVQSLHGVFKVKDTTTLQQHLVDGRDMIIIRMPKDFPPFPQKLKFREPQREERICLVTTNFQTKSMSSMVSDTSCTFPSGDGIFWKHWIQTKDGQCGSPLVSTRDGFIVGIHSASNTTNTNNYFTSVPKNFMELLTNQEAQQWVSGWRLNADSVLWGGHKVFMVKPEEPFQPVKEATQL [F173T],0.1,,0.0991,0.0834,0.144,,,0.0724
